# Assay results: the RNAGym collection of RNA variant scans (doi:10.1073/pnas.2313332121)
# This sample is rich in variants without activity.
# B1: TPR 5TU (parent)
# chain: GGAUCUUCUCGAUCUAACAAAAAAGACAAAUCUGCCACAAAGCUUGAGAGCAUCUUCGGAUGCAGAGGCGGCAGCCUUCGGUGGCGCGAUAGCGCCAACGUUCUCAACUAUGACACGCAAAACGCGUGCUCCGUUGAAUGGAGUUUAUCAUG
# Variants of: B1
# Test: polymerase ribozyme fitness, log enrichment relative to wild type (log ratio); higher = more active; in vitro selection for triplet polymerase activity
# Summary of the method: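 Mutant libraries of each subunit of a heterodimeric triplet polymerase ribozyme were built by PCR and transcribed. Each library went through one round of in vitro selection in triplicate: annealing with biotinylated primer, partner subunit and triplets, frozen incubation at −7 °C, gel excision of extended constructs, streptavidin-bead capture and RT-PCR. Input and output libraries were Illumina-sequenced; only genotypes with ≥10 input reads and ≥1 read per output were kept. Fitness is log2(genotype enrichment/wild-type enrichment), using inverse-variance-weighted replicate averages.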
row,Variant,polymerase ribozyme fitness (log ratio)
1,G84U C87A C116U,≤ -4.2
2,G86A C99G,-3.06
3,C85U U134A,-3.04
4,C85U U134G,-2.89
5,G88U C125U A137C,≤ -4.2
6,G84U A137U C149A,≤ -4.2
7,C85U A89G A106G G117A G126C G143C,≤ -4.2
8,C85G U109G U144C,≤ -4.2
9,C87U A89G,-3.41
10,C85U A150C G152U,-3.38
11,G84U C108A G124U A137C U145C,≤ -4.2
12,G84U U127A U134G,≤ -4.2
13,C87U C96G A113U,-2.85
14,U90G G124C,≤ -4.2
15,C87U G92C,-0.38
16,C85U U148A,-3.08
17,G88A C103G A142C,≤ -4.2
18,G88A U90C A137G,≤ -4.2
19,A89G G92U C125U U146C,-1.03
20,A91U A98U U135G,≤ -4.2
21,A91U C95G C99A G152U,≤ -4.2
22,G84U C87A G136A,≤ -4.2
23,G88A A110G A122U,-3.97
24,G88U C99A,-4.1

row,Variant,polymerase ribozyme fitness (log ratio)
1,G84A U144A,-1.65
2,G84U G86U C129U G152A,≤ -4.2
3,G84U C87U U90G G126A U130A,≤ -4.2
4,G84A C103G C105U,≤ -4.2
5,A91G C114G C125G,≤ -4.2
6,A89U A137C U151G,≤ -4.2
7,U90G G126U A147U,-3.95
8,C87A A121C,≤ -4.2
9,C87A A89U C129G,≤ -4.2
10,C87U U90C C99G,-3.53
11,C85G G86U U90A G140U C149G,≤ -4.2
12,C87G G92A A119G,≤ -4.2
13,A89C G94C,-1.57
14,C85A G126C G133A,≤ -4.2
15,C85A U135A,-0.589
16,C85G G126U A142C,≤ -4.2
17,C87U U90C U134A A138U G143A,≤ -4.2
18,A91U C93A,≤ -4.2
19,A91U C108U A113U C118U C149G,≤ -4.2
20,A91G C149G,≤ -4.2
21,G86A C87G,-3.97
22,A89G G92U,-2.48
23,G86U A113G C114G G133U,≤ -4.2
24,C87A A107G C123U G140U,≤ -4.2

row,Variant,polymerase ribozyme fitness (log ratio)
1,G86U C114G U134G,≤ -4.2
2,G84A C96G,-0.627
3,C85U G86U A91U,≤ -4.2
4,A91C A142C,≤ -4.2
5,G84C C118A C125U G136U A142U,≤ -4.2
6,C85U U127C,-2.51
7,C85U U127A,-3.36
8,G92A C103U,-2.02
9,G86C C116U,-2.44
10,G86U C99G C116G G128U,≤ -4.2
11,G84C C125G,-1.94
12,C85A C103G A147U,-2.48
13,G84U C129U,-1.42
14,G88C A115G A122C U127G,≤ -4.2
15,C85A A122G,-2.54
16,C85U C87G C95G C131A U134G A147U,≤ -4.2
17,C85U C87U A107U C131A G140U G141C U144A U146G,≤ -4.2
18,G88A A97C C131A,≤ -4.2
19,C87A G112C C116G,≤ -4.2
20,G88A G133C G141U,≤ -4.2
21,G92A U148C,-4.02
22,C85G A122C,-1.98
23,A91G G126A G141A,-3.67
24,A91U A119U G133C C149A,≤ -4.2

row,Variant,polymerase ribozyme fitness (log ratio)
1,C87G C114G C131U,≤ -4.2
2,G88C A110U,≤ -4.2
3,A91U,≤ -4.2
4,A91C,≤ -4.2
5,A91G,-2.77
6,C87U A121U,-0.38
7,C85G C105G A113U,≤ -4.2
8,G86A G143C A147G,≤ -4.2
9,A91U A115U C118A C131G A138G,≤ -4.2
10,A91G G100C,≤ -4.2
11,G88C A147C G152U,≤ -4.2
12,G86A A97G A137C G140A,≤ -4.2
13,C87G G88U U90G,≤ -4.2
14,G84A G88A,≤ -4.2
15,C87G C99A C114U C125G,≤ -4.2
16,C87A C105A A115G G136U,≤ -4.2
17,G86A A89U A107U C118U G140U U144G,≤ -4.2
18,A89U U127C G136C A137C,-4.13
19,G84A C95A,-0.531
20,G84A C95G,-0.784
21,U90G G92C U139G,≤ -4.2
22,G84U G133U C149U,≤ -4.2
23,G84U G92A,≤ -4.2
24,C85A C99G,-3.49

row,Variant,polymerase ribozyme fitness (log ratio)
1,C85A C99A,-2.8
2,G84C A91U,≤ -4.2
3,G84U A89G,-3.82
4,C85U G128U C129A U146G,≤ -4.2
5,C87U C103U,-0.658
6,G92C U101G G117C,-1.52
7,C85A G128A U144G,≤ -4.2
8,C85A C125A,-2.27
9,C85A C129G,-2.95
10,A91G C95U A107G,≤ -4.2
11,G84A G100C U134A G141C,≤ -4.2
12,G84U C87G G88C G143C,≤ -4.2
13,C87A A120C,≤ -4.2
14,C85A G126A C149G,≤ -4.2
15,A91C A150G,≤ -4.2
16,G86U A142G,-2.35
17,G84C C85G,-4.03
18,A89G G94A G100C,≤ -4.2
19,C85G U102C,≤ -4.2
20,C85A U127A U148A,≤ -4.2
21,C87G U139G,≤ -4.2
22,A91G A121U,-3.01
23,U90G A120C U139C,≤ -4.2
24,G88A G100A C125A C131G,≤ -4.2

row,Variant,polymerase ribozyme fitness (log ratio)
1,C85A C105U,-1.89
2,G86U C105G G136U,≤ -4.2
3,C85U G126C A142C,≤ -4.2
4,G84U C116U G143C,-3.37
5,A91C G92A A107U G136U A147U,≤ -4.2
6,G84A U135A,-1.69
7,C87A C116U,≤ -4.2
8,G86U A107G,≤ -4.2
9,A89U C93G,-3.68
10,C87A A107C U139C U151A,≤ -4.2
11,C85A C96U G100U G141U,≤ -4.2
12,C87A C108G U127C,≤ -4.2
13,C85U C93G A150G,≤ -4.2
14,C85A A107U A147C U151C,≤ -4.2
15,G88C A115U G117U C131G U135G,≤ -4.2
16,U90C G94U G124A C125U,-4
17,G88A A113G A115U,≤ -4.2
18,C87G A89G,≤ -4.2
19,U90C C99U,≤ -4.2
20,U90G G100A C116U,≤ -4.2
21,A89U U102G A122C,-3.7
22,C85U C105U A106C U135C G141A,-3.94
23,A89U A91U G136C U139A A142U G152A,≤ -4.2
24,C85A G117A A138G,-4.18

row,Variant,polymerase ribozyme fitness (log ratio)
1,G92C U102A G133C A150G,≤ -4.2
2,G84C C93U C108U,≤ -4.2
3,G86U C105A C118G U151A,≤ -4.2
4,G86U G143A,-2.53
5,C85G G92C C99A U146A,≤ -4.2
6,C85G C93U,≤ -4.2
7,G84A G94A A98C G124A,-0.811
8,G92U C93A G136C,≤ -4.2
9,C87G C123A,≤ -4.2
10,C87G U90C A98G C149A,≤ -4.2
11,G84U A98U C132U U139C,≤ -4.2
12,G84U C131G,-3.96
13,C85A C96U A137U U144A,≤ -4.2
14,G92C C114G C123U G152A,≤ -4.2
15,G84A G94C U151C,≤ -4.2
16,C87G G100U A120C U135G G136U,≤ -4.2
17,C87G A98G,≤ -4.2
18,G86A C87A A91C A120C,≤ -4.2
19,A89U C123U,0.89
20,G88U C105U U134G,≤ -4.2
21,G88C A91U A110U,≤ -4.2
22,A89G C131A,-2.5
23,G86U U109G G140U G141A,≤ -4.2
